Screen size: about 390,000 compounds; about 17,000 (4.4%) were called active. This list was built around the results that the source calls inconclusive (neither active nor inactive); the mix of calls is not that of the screen. Calls follow the shape of the dose curve; as a rule, active = well fitted inhibition curve with a large enough effect; inconclusive = small, poorly fitted or top-dose-only effect; inactive = no such curve, though single readings can be large or run the other way. Where the call is inconclusive, the potency comes from a doubtful curve fit.
target: Lysine-specific demethylase 4A (Homo sapiens) (UniProt O75164); experiment: qHTS Assay for Inhibitors of JMJD2A-Tudor Domain; conditions: AlphaScreen JMJD2A-Tudor / H3K4me3 peptide binding; activity change, negative = inhibition: at 114 µM (top of the series); also: nearly all actives have a fitted effect of over 50% in size
Sequence of UniProt O75164 (O75164 whole entry, looked up, the tested form may be a part): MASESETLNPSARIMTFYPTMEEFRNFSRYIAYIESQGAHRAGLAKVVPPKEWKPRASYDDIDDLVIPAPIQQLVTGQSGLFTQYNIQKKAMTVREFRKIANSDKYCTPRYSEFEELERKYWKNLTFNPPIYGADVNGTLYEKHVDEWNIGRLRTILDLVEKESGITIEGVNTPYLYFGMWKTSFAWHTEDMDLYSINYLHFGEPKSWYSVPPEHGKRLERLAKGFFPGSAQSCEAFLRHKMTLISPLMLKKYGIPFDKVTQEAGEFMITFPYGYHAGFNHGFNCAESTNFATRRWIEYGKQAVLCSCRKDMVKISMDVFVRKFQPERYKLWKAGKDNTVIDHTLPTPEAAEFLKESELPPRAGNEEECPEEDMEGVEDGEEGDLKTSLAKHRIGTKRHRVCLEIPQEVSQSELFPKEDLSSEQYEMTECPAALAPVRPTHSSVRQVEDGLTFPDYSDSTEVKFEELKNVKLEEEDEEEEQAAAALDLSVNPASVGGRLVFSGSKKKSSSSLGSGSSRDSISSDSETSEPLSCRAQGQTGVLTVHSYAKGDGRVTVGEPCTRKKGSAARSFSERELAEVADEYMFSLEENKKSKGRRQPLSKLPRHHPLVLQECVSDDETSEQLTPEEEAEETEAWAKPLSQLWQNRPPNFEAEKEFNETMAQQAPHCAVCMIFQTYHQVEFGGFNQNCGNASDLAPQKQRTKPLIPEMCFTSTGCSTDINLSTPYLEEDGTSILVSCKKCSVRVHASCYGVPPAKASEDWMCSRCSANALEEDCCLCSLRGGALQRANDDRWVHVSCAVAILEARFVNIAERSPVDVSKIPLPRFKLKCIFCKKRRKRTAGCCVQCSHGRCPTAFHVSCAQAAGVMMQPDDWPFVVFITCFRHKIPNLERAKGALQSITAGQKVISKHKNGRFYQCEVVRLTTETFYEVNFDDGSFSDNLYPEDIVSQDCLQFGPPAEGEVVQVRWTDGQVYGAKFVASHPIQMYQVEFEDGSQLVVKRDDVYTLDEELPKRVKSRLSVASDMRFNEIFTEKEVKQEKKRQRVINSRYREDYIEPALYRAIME
% is scaled to controls: 0 for no effect and ±100 for the full control effect; potency is read from the fitted curve at half-maximal effect; tags tell the direction and shape of the fitted curve.

Activity change, negative = inhibition, inactive:
Cc1nc2ccccn2c1C(=O)NC1CCCc2ccccc21 (stereo unspecified) -8.16%
CCCN(CCC)S(=O)(=O)c1ccc(C(=O)Nc2sc3c(c2C(=O)OC)CCN(CC)C3)cc1 -9.17%
Cc1ccc(NC(=O)Cn2ncc(Cl)c(Cl)c2=O)cc1S(=O)(=O)N1CCCCC1 -26.8%
CCCCCCCCCCCCCCCC[N+](C)(C)CCl -4.17%
CCC(C(=O)OC)n1cnc2c(nnn2-c2ccc(F)cc2)c1=O (stereo unspecified) -7.75%
CCOc1ccc(C(=O)NC(=S)Nc2ccccc2N2CCC(C)CC2)cc1[N+](=O)[O-] -26.7%
Cc1nnc(N/N=C/c2ccc(-c3ccc(Br)cc3)o2)n1N -30.1%
CC(=O)CSc1nnc2cc(C)c3cc(C)cc(C)c3n12 -28.1%
O=C(Nc1ccc(N2CCOCC2)cc1)C1(c2ccc(Cl)cc2)CCC1 -32.9%
COCCn1c(SCC(=O)NC(=O)NC(C)C)nc2ccccc21 -9.13%
O=C(N/N=C/c1ccc(O)cc1O)C1CC1 -25.9%
COc1cc(C2c3c(oc4ccccc4c3=O)C(=O)N2c2ccccn2)cc(OC)c1OC (stereo unspecified) -10.3%
O=C(CSc1ncccc1-c1nc2ccccc2[nH]1)N1CCN(c2ccccc2F)CC1 -27.6%
Cc1ccc(C)c(C(=O)c2c(N)c(-c3nc(-c4ccc5c(c4)OCO5)cs3)c3ccccn23)c1 -15.4%
O=C(Cc1ccc(F)cc1)NCCc1cnc[nH]1 -1.09%
CCOc1ccc(S(=O)(=O)NCCN2CCOCC2)c2ccccc12 -13.5%
CCOC(=O)N1CCN(C(=O)c2cc(OCC)c(OCC)c(OCC)c2)CC1 -3.08%
CN1C(=O)C2(C(C#N)=C(N)N(c3cc(Cl)cc(Cl)c3)C3=C2C(=O)CCC3)c2ccccc21 (stereo unspecified) 6.77%
Cc1nc2c(c(C)c1CCC(=O)NCc1ccccc1)c(=O)n(C)c(=O)n2C -12.1%

Activity change, negative = inhibition, inconclusive:
CN(CC(=O)Nc1cccc(F)c1)C(=O)c1ccc(N2CCCCC2)c([N+](=O)[O-])c1 -37.2% [inhibitor]

Potency, inconclusive:
COc1ccc(OC)c(C2C(C(C)=O)=C(O)C(=O)N2CCC(=O)O)c1 (stereo unspecified) 20 µM [inhibitor, full curve]
Cc1ccc(-n2cccc2/C=C2\C(=N)N3N=C(c4ccco4)SC3=NC2=O)cc1 10 µM [inhibitor, partial curve]
CCOC(=O)c1c(C)[nH]c(C)c1S(=O)(=O)N1CCN(c2cccc(C(F)(F)F)c2)CC1 56.2 µM [inhibitor, partial curve]
CN=c1scc(C)n1/N=C/c1ccc2c(c1)OCO2 56.2 µM [inhibitor, partial curve]
Cc1cc(Nc2ccc(Cl)cc2)nc(NCc2ccccc2)n1 25.1 µM [inhibitor, single point]
Cc1ccc(CO/N=C\Cc2snc(Sc3ncc(C(F)(F)F)cc3Cl)c2C#N)cc1 44.7 µM [inhibitor, partial curve]
CCOc1cccc(C=NNc2ccc(S(=O)(=O)Nc3ccccc3C(=O)O)cc2[N+](=O)[O-])c1O 50.1 µM [inhibitor, partial curve]
Cc1cccc(C(=O)Nc2nnc(S(=O)(=O)N(C)c3ccccc3C)s2)c1 6.31 µM [inhibitor, full curve]
CCc1ccc(CN2CCc3nc(N4CCN(CC)CC4)ncc3C2)cc1 79.4 µM [inhibitor, partial curve]
CNC(=O)Cn1nc(-c2ccc(C)cc2)c2ccccc2c1=O 20 µM [inhibitor, full curve]
CN(C)CCn1c(SCc2ccccc2C#N)nc2c(sc3ccccc32)c1=O 50.1 µM [inhibitor, partial curve]
CC1Cc2ccccc2N1Cc1nc2cc(C(F)(F)F)ccc2c(=O)[nH]1 (stereo unspecified) 50.1 µM [inhibitor, partial curve]
O=C(CCc1nnc2ccc(NCc3ccco3)nn12)Nc1cccc(F)c1 56.2 µM [inhibitor, partial curve, poor fit]
O=C(NCC(c1ccco1)N1CCc2ccccc21)c1ccccc1 (stereo unspecified) 50.1 µM [inhibitor, partial curve]
COc1ccc(-c2ccc3c(c2)[C@@H]2C[C@H](N(C)C(=O)C(C)(C)C)[C@H]([C@H](C)O)C(=O)N2CC3)cc1 70.8 µM [inhibitor, partial curve, poor fit]
CCOC(=O)N1CCN(CC(=O)n2c(C)c(C)c3ccccc32)CC1 31.6 µM [inhibitor, single point]
CCOc1cc(NC(=S)Nc2ccccc2)c(OCC)cc1NC(=O)c1ccccc1 44.7 µM [inhibitor, partial curve]
COc1ccccc1N(CC(=O)Nc1ccc2c(c1)OCO2)S(=O)(=O)c1ccccc1 11.2 µM [inhibitor, partial curve]
COc1cc(CN2CCCC(C(=O)c3ccc4c5c(cccc35)CC4)C2)cc(OC)c1O (stereo unspecified) 56.2 µM [inhibitor, partial curve]
C=CCn1c(SCc2c(F)cccc2Cl)nnc1-c1ccco1 100 µM [inhibitor, partial curve, poor fit]
O=C(NC(Cc1c[nH]c2ccccc12)C(=O)Nc1ccc(OC(F)(F)F)cc1)c1cccs1 (stereo unspecified) 35.5 µM [inhibitor, partial curve]
Cc1nn(C(C)C(=O)N2CCN(c3ccc(Cl)cc3)CC2)c(=O)c2cc3occc3n12 (stereo unspecified) 50.1 µM [inhibitor, partial curve]
COc1ccc(/C=C/C(=O)NCCCN2CCCCCC2)cc1 50.1 µM [inhibitor, partial curve]
CCC(C)Nc1nc(N)c([N+](=O)[O-])c(N2CCCCCC2)n1 (stereo unspecified) 89.1 µM [inhibitor, partial curve]
O=C(CSc1nnc(-c2ccncc2)n1Cc1ccco1)c1ccc(Cl)cc1 56.2 µM [inhibitor, partial curve]
NC(=O)c1c(NC(=O)CSc2nnc(-c3ccco3)n2-c2ccccc2)sc2c1CCC2 100 µM [inhibitor, partial curve, poor fit]
O=C(/C=C/Nc1ccccc1Br)c1ccccn1 89.1 µM [inhibitor, single point]
Cc1ccc(C2CN(C)C3(C(=O)Nc4ccccc43)C23COc2ccccc2C3=O)cc1 (stereo unspecified) 35.5 µM [inhibitor, full curve]
Cc1cc(C)cc(Nc2nc(-c3ccc(S(=O)(=O)N4CCCC4)cc3)cs2)c1 39.8 µM [inhibitor, partial curve]
COC(=O)[C@@H]1[C@H]2C[C@H]3c4[nH]c5ccccc5c4CCN3C[C@@H]2CC[C@@H]1O 112 µM [inhibitor, partial curve, poor fit]
Fc1ccc(N/N=C2/CC(c3ccccc3)Oc3ccccc32)c(F)c1 (stereo unspecified) 50.1 µM [inhibitor, partial curve]
Cc1ccc(NCc2nnc(SCC(=O)N3c4ccccc4Sc4ccccc43)o2)c(C)c1 28.2 µM [inhibitor, partial curve]
CCOc1ccccc1NC1c2ccccc2C(=O)N1Cc1ccco1 (stereo unspecified) 56.2 µM [inhibitor, partial curve]
COc1ccccc1Nc1nnc(SCC(=O)c2cc(C)n(CC3CCCO3)c2C)s1 (stereo unspecified) 20 µM [inhibitor, full curve]
CCOc1ccc(CNc2nc3nc(C)c(Cc4ccccc4)c(=O)n3[nH]2)cc1 70.8 µM [inhibitor, partial curve, poor fit]
COc1cccc(Nc2cc(C)nc3nc(-c4ccc(Cl)cc4)nn23)c1 79.4 µM [inhibitor, single point]
COc1ccc(Nc2nc(N/N=C/c3ccc(N(C)C)cc3)nc(C)c2[N+](=O)[O-])cc1 12.6 µM [inhibitor, partial curve]
Nc1cc([N+](=O)[O-])ccc1N1C(=O)CCCC1=O 79.4 µM [inhibitor, partial curve]
Nc1cc2c(cc1Cl)-c1ccccc1C2=NO 25.1 µM [inhibitor, full curve, poor fit]
Cc1cc(/C=C2/SC(=S)N(c3cccc(Cl)c3)C2=O)c(C)n1-c1cccnc1 28.2 µM [inhibitor, partial curve]

Potency, active:
COc1ccc(CN2CCSCC2)c(OC)c1C 3.98 µM
Nc1ncnc2[nH]c(=S)[nH]c12 3.55 µM
COc1ccc(CNCCNC(=O)c2cccs2)c(OC)c1OC 22.4 µM
Cc1ccc2c(c1)c1c(n2CC(O)CNC(C)(C)C)CCCC1 (stereo unspecified) 44.7 µM
Nc1nc(CN2CCN(c3ccccn3)CC2)nc(Nc2ccc(F)cc2)n1 50.1 µM
COc1cccc(CN2CCN(S(=O)(=O)c3ccccc3)CC2)c1OC 28.2 µM
CCOC(=O)CN1NC2(CCCC(C)C2)NC1=S (stereo unspecified) 50.1 µM
Nc1c(-c2ccccc2)cc[nH]c1=O 8.91 µM
CCOC(=O)c1ncccc1NC(=O)CC(=O)Nc1cccnc1C(=O)OCC 12.6 µM
O=c1cc(C(F)(F)F)[nH]c(=S)n1-c1ccccc1 79.4 µM
CCOC(=O)COc1ccccc1C1C(C(=O)OC)=C(C)NC2=C1C(=O)c1ccccc12 (stereo unspecified) 39.8 µM

Reference: PubChem BioAssay AID504339 (National Center for Advancing Translational Sciences (NCATS), 2011)
